# From ChEMBL document CHEMBL4888484, “Replenishing the malaria drug discovery pipeline: Screening and hit evaluation of the MMV Hit Generation Library 1 (HGL1) against asexual blood stage Plasmodium falciparum ,using a nano luciferase reporter read-out” (2022)
# Among all 150,000 compounds or so, about 540 (0.36%) showed an effect of 50% or more. This is one part of the list.
# Tested on: Plasmodium falciparum
# Test: Primary screen in NF54 nanoGlo assay, in single point, at 2uM, 72h; a lower Z score goes with more inhibition
# Type: functional, Erythrocyte
# Conditions: timepoint 72 hour
SMILES,% Inhibition,Z score
COCc1ccc(C(=O)N2C[C@@H]3[C@H]4CC[C@H](CC4)[C@@H]3C2)cc1,-15%,1.8
CCn1cc(Cl)c(C(=O)N(C2CCCCC2)C2CCCCC2)n1,33%,-1.09
Cc1ccc(NC(=O)CN2C(=O)CCc3cc(Br)ccc32)cc1N(C)C,-3%,0.42
CC1CCCCC1NCC(C)(O)c1ccc(S(C)(=O)=O)cc1 (stereo not given),-8%,1.1
CC[C@H](NCc1noc(C)n1)c1cccs1,2%,-0.24
O=C(c1cnc(OCc2ccccc2)cn1)N1CCOC2(CCCCCC2)C1,-16%,1.42
COC(=O)c1cc(C)nc2c1c(=O)n(CC(=O)Nc1ccc(C)cc1)c(=O)n2-c1ccccc1OC,0%,-0.06
CC(C)c1cccc2c1OCC[C@H](N)C2=O,-5%,0.67
Nc1c(-n2cccn2)cccc1-n1cccn1,-9%,1.26
COc1cc(-c2nc(C)nc3c2CCC3)cc(OC)c1OC,-5%,0.74
CC(C)(C)n1cc(CN2CCCC[C@@H]2CCS(C)(=O)=O)cn1,-10%,1.66
CC(C)C(=O)Nc1ccc(NC(=O)NCCc2ccnn2C)cc1,-1%,0.21
O=C(c1cccc(Cl)c1)N1CCCC1CC(O)c1ccco1 (stereo not given),2%,-0.26
Cc1ccc(C(=O)N2CCn3c(nnc3[C@@H]3C[C@@H](O)CN3C(C)C)C2)cn1,-11%,1.42
Cc1cc2cc[nH]c2cc1NC(=O)c1ccc(Cl)cn1,-15%,1.36
Cn1c(CN2CC[C@@](O)(CN3CCCCC3)C2)nc2ccccc21,2%,-0.33
COc1ccc2[nH]c3c(c2c1)CCN1C(=O)N(C2CCCCC2)C(=O)[C@]31C,-43%,6.53
CCNc1ncc(S(=O)(=O)NCCCCO)cc1C(F)(F)F,-18%,1.78
CC(=O)Nc1nnc(CCNC(=O)c2ccccc2Cl)s1,-7%,1.29
O=C(NCCc1ccc[nH]1)[C@H]1CC[C@H](Nc2cnccn2)CC1,-11%,1.5
CC1=CCN(C(=O)c2cccc(S(=O)(=O)NCc3cc[nH]n3)c2)CC1,-5%,1
N/C(=N\O)C1CC(=O)N(C2CCc3ccccc32)C1 (stereo not given),-15%,1.73

SMILES,% Inhibition,Z score
O=C(NCCOCCN1C(=O)CCC1=O)OCc1ccccn1,0%,0.09
CCCn1c(=O)[nH]c2c(C(=O)N(C)Cc3ccccc3)snc2c1=O,-10%,1.62
CC(C)CCCNC(=O)N1CCOCC1,-2%,0.27
COCCNC(=O)C(=O)NCC[C@@H](CCO)c1ccccc1,3%,-0.38
COc1ccc(CN2CC(=O)N3C(c4ccc(OC)cc4)c4[nH]c5ccccc5c4C[C@H]3C2=O)cc1 (stereo not given in full),-8%,1.28
CC1CCC2(CC1)OC[C@H](CNCc1c[nH]nc1-c1cccnc1)O2 (stereo not given in full),-15%,1.85
O=C(NCC1CCCO1)N1CCC(C(O)C(F)(F)F)CC1 (stereo not given),-18%,1.87
Cc1cc(C2CCC(C(=O)NCC3CC3)CN2C(=O)C2CCCC2)ccc1F (stereo not given),-10%,1.15
CCn1ccc(C(=O)N2CCC3(CC2)C[C@@H](N(C(=O)c2ccccc2)C2CC2)CCO3)n1,-3%,0.42
CCCN1C(=O)CC[C@@H]2CN(C(=O)c3c[nH]c(=O)c(Cl)c3)CC[C@@H]21,-17%,2.92
COCC1(C(=O)N(C)Cc2csc(-c3cccs3)n2)CCC1,-14%,1.3
NS(=O)(=O)c1ccc(NC(=O)N(Cc2ccsc2)C2CCCC2)cc1,0%,0.05
O=C(Cc1cccs1)N1CC(n2nccn2)C1,-5%,0.81
Cc1ccc(-c2cn3ccn(-c4ccc(C)c(Cl)c4)c(=O)c3n2)cc1,-10%,1.31
CN(Cc1ccc2nccnc2c1)C(=O)CCN1Cc2ccccc2O[C@H](c2ccccc2)C1,8%,-1.1
Cc1ccsc1C(=O)NCc1ccccn1,-7%,0.79
O=C(CNCCS(=O)(=O)N1CCCC1)NC1CCCCCCC1,-17%,3.31
Cc1ccc(-n2cc(-c3ccccc3)nc2NC(=O)CN(C(=O)NC(C)(C)C)C2CC2)cc1C,2%,-0.24
CCn1c(-c2cc(NC(=O)c3cnccn3)[nH]n2)cc2cc(OC)ccc21,2%,-0.18
COc1ccc(CC(=O)NC(N)=Nc2nc3ccccc3o2)cc1,-1%,0.14
CCCN1C(=O)c2ccccc2N2C(=O)CC[C@@]12C(=O)Nc1cccc(NC(C)=O)c1,8%,-1.31
O=C(NCc1cnn(CC2CCC2)c1)[C@H]1OCC[C@H]1Cn1cccn1,-16%,1.97

SMILES,% Inhibition,Z score
Cc1cc(-c2ccc(N3CCCC3)nn2)ccn1,-7%,1.47
O=C(Cc1ccc2[nH]ncc2c1)N1CCC2C(CCCN2Cc2ccccc2)C1 (stereo not given),-3%,0.43
COc1ccc(C(=O)N2CC[C@@H]3CN(Cc4cccnc4)[C@@H]3C2)cc1F,-6%,0.76
Cc1cscc1C(=O)Nc1cccc(C(N)=O)n1,-9%,1.68
CC(C)c1nocc1C(=O)N[C@H]1CCN(C2CCCCC2)C1,-11%,1.64
CN1CCN(Cc2ccc(-c3ccoc3)nc2)CC1,-9%,1.48
N#Cc1ccc(C(=O)N2CCC[C@H](Oc3cnccn3)C2)cc1,-16%,2.69
COc1cccc(CNC(=O)N[C@@H]2C[C@H]2C2CCCCC2)n1,-14%,2.31
Cc1cccc2c1OCC[C@@H]2NCc1cnn(C(C)C)c1,0%,0
Cc1n[nH]cc1CNCCN1CCCCCC1,-10%,1.34
Cc1ccc(Oc2ncccc2CNC(=O)CN2CCCN(C)CC2)c(F)c1F,-3%,0.47
O=C(O)[C@H]1CCN(C(=O)c2sccc2C2CC2)C1,-5%,0.77
Cc1noc(C)c1C(=O)NCCN1c2ccccc2N(C2CC2)S1(=O)=O,-19%,2.96
CCN(Cc1nc(C)no1)C(=O)NC1(CN2CCCCC2)CCCCC1,2%,-0.42
O=C(Cn1cnc2c(-c3ccc(F)cc3)nsc2c1=O)Nc1ccc2c(c1)OCCO2,-7%,1.16
O=C1CN(C(=O)c2cc(Br)cc3[nH]cnc23)CN1Cc1ccccc1,-4%,0.59
CCC(=O)N1CCc2cc(Br)c(S(=O)(=O)CCC(=O)N3CCC[C@H](C)C3)cc21,-17%,1.7
O=C(c1ccc2ccccc2n1)N1CCN(c2cccc(Cl)c2)CC1,-8%,1.18
O=C(c1ccncc1)N1CC[C@H](c2nnc(Cc3ccccc3)o2)C1,-16%,2.28
CCC(=O)N1CCc2cc(N3CCOCC3)ccc21,-11%,1.49
CN1CC(NC2CCc3ccccc3C2)CCC1=O (stereo not given),0%,0.01
C[C@H]1CCc2c(sc(N3CCCC3=O)c2C#N)C1,-7%,0.98

SMILES,% Inhibition,Z score
O=C(Cn1ncc2cccnc21)N1CCO[C@H](c2ccccc2)CC1,-3%,0.37
C=CC[C@]1(C(=O)O)CCCN(Cc2cnc(N(C)C)s2)C1,0%,-0.08
O=C(c1cc(Cl)c(Cl)[nH]1)N(Cc1ccncc1)C1CC1,-16%,2.56
Cc1cc(C)cc(NC(=O)c2ncoc2-c2ccco2)c1,-10%,1.01
O=C(NCCn1cc(-c2ccoc2)cn1)c1ccncc1,-8%,1.45
O=C(O)CN1CCCC[C@H](N2CCN(c3cccc(Cl)c3)CC2)C1=O,5%,-0.44
CN1CCN(C)[C@@H](CC(=O)N2CC(Oc3ccccc3F)C2)C1,-8%,1.06
CC(C)c1cc(C(=O)N2CCC3(CC[C@H](CNC(=O)c4ccco4)O3)CC2)nc(N)n1,2%,-0.5
Cn1nc(CN(Cc2ccco2)C(=O)c2ccc(F)c(F)c2)c2c1CCC2,3%,-0.64
COc1ccc2c(c1)CN(Cc1ccccc1Cl)CC[C@H]1COC(=O)N21,28%,-2.08
Cc1cc2ccccc2n1CC(=O)N1C[C@@H]2[C@H](C1)[C@H]2NC(=O)C1CCN(C)C1=O (stereo not given in full),-6%,1.09
Cc1n[nH]c(C)c1CNC(=O)N1CCN(CC(F)(F)F)[C@@H](C)C1,-2%,0.39
Cc1cc(C(=O)N2CCC3(CC2)CC3(F)F)c(C)o1,-16%,3.24
c1ccc(-n2nc(C3CC3)nc2-c2n[nH]c3c2CCC3)cc1,7%,-0.81
COc1cc(OC)cc([C@@H](CC(=O)NCC(C)C)c2cn(Cc3ccccc3)c3ccccc23)c1,-7%,0.91
Cc1ccsc1C(=O)N1CCCn2nc(-c3ccncc3)cc2C1,-20%,1.74
Cc1ccc(CC(=O)N(C)C[C@H](C)O)cc1O,5%,-0.74
Cc1cc(NC(=O)c2cccc(-n3ccnn3)c2)nc(=O)[nH]1,-14%,2.12
CC(NC(=O)C1CCC1)C1CC2CCC1C2 (stereo not given),-12%,1.45
